Results reported in paper PMC12820563, “FoxP3 forms a head-to-head dimer in vivo and stabilizes its multimerization on adjacent microsatellites”.
The list shows a part of the results.

molecular target: T1, MBP-FoxP1dN (Mus musculus, UniProt P58462 326-579); experiment: PD-seq (MBP pull-down with sequencing); 20 mM Tris-HCl pH 7.5, 100 mM NaCl, 1.5 mM MgCl2, 0.4 uM protein, 0.1 uM dsDNA library, 30 min, room temperature, amylose pull-down; high values mean tight binding; details: protein: recombinant; tags: His6-MBP; chain copies: 2; dsDNA, one strand shown
T1 sequence: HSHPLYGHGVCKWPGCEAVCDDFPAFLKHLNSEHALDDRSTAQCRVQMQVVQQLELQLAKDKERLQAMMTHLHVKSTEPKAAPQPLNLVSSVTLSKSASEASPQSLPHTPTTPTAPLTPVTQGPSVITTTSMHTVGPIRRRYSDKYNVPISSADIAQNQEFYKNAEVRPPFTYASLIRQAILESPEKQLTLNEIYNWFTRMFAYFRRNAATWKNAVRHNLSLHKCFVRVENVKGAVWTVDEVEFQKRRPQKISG
Procedure, shortened: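 Protein and DNA were mixed at 0.4 µM and 0.1 µM and held for 30 min at room temperature in Tris pH 7.5 buffer with NaCl and MgCl2; the protein was a His6-MBP-tagged, N-terminally truncated mouse FoxP3 or FoxP1 fragment from E. coli, and the DNA a Klenow-filled double-stranded degenerate library. Amylose resin captured the complexes, which were washed three times. Binding is read as reads-per-million enrichment of pull-down versus input after Illumina sequencing, with replicates pooled.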

Row | Sequence | binding signal
1 | GATGATTGTTCTCCCAGCTGATGAATTCTTCGCGTCGAGTAAACAAATTTTCCTAATCTTTCTGTTCAAGCGCCATCTAC | 0.892 RPM ratio (pull-down/input)
2 | GATGATTGTTCTCCCAGCTGATGAATTGATATAGTCGAGTAAACAAATTTTCCTAATCTTTCTGTTCAAGCGCCATCTAC | 1.04 RPM ratio (pull-down/input)
3 | GATGATTGTTCTCCCAGCTGATGAATTCCACAGTTCGAGTAAACAAATTTTCCTAATCTTTCTGTTCAAGCGCCATCTAC | 0.831 RPM ratio (pull-down/input)
4 | GATGATTGTTCTCCCAGCTGATGAATTGACAGATTCGAGTAAACAAATTTTCCTAATCTTTCTGTTCAAGCGCCATCTAC | 1.28 RPM ratio (pull-down/input)
5 | GATGATTGTTCTCCCAGCTGATGAATTTGACCCCTCGAGTAAACAAATTTTCCTAATCTTTCTGTTCAAGCGCCATCTAC | 0.843 RPM ratio (pull-down/input)
6 | GATGATTGTTCTCCCAGCTGATGAATTTTGTATTTCGAGTAAACAAATTTTCCTAATCTTTCTGTTCAAGCGCCATCTAC | 1.42 RPM ratio (pull-down/input)
7 | GATGATTGTTCTCCCAGCTGATGAATTATTTACATCGAGTAAACAAATTTTCCTAATCTTTCTGTTCAAGCGCCATCTAC | 2.34 RPM ratio (pull-down/input)
8 | GATGATTGTTCTCCCAGCTGATGAATTTAGCCTCTCGAGTAAACAAATTTTCCTAATCTTTCTGTTCAAGCGCCATCTAC | 0.995 RPM ratio (pull-down/input)
9 | GATGATTGTTCTCCCAGCTGATGAATTTCAATTTTCGAGTAAACAAATTTTCCTAATCTTTCTGTTCAAGCGCCATCTAC | 1.11 RPM ratio (pull-down/input)
10 | GATGATTGTTCTCCCAGCTGATGAATTGTTGGCGTCGAGTAAACAAATTTTCCTAATCTTTCTGTTCAAGCGCCATCTAC | 1.35 RPM ratio (pull-down/input)
11 | GATGATTGTTCTCCCAGCTGATGAATTTCGGTATTCGAGTAAACAAATTTTCCTAATCTTTCTGTTCAAGCGCCATCTAC | 0.97 RPM ratio (pull-down/input)
12 | GATGATTGTTCTCCCAGCTGATGAATTCGCGTAATCGAGTAAACAAATTTTCCTAATCTTTCTGTTCAAGCGCCATCTAC | 1.28 RPM ratio (pull-down/input)
13 | GATGATTGTTCTCCCAGCTGATGAATTTAGCGGATCGAGTAAACAAATTTTCCTAATCTTTCTGTTCAAGCGCCATCTAC | 0.899 RPM ratio (pull-down/input)
14 | GATGATTGTTCTCCCAGCTGATGAATTCGAGATTTCGAGTAAACAAATTTTCCTAATCTTTCTGTTCAAGCGCCATCTAC | 0.767 RPM ratio (pull-down/input)
15 | GATGATTGTTCTCCCAGCTGATGAATTTACGAACTCGAGTAAACAAATTTTCCTAATCTTTCTGTTCAAGCGCCATCTAC | 1.15 RPM ratio (pull-down/input)
16 | GATGATTGTTCTCCCAGCTGATGAATTTGCATAATCGAGTAAACAAATTTTCCTAATCTTTCTGTTCAAGCGCCATCTAC | 1.4 RPM ratio (pull-down/input)
17 | GATGATTGTTCTCCCAGCTGATGAATTAGCCGTGTCGAGTAAACAAATTTTCCTAATCTTTCTGTTCAAGCGCCATCTAC | 0.87 RPM ratio (pull-down/input)
18 | GATGATTGTTCTCCCAGCTGATGAATTCACGACATCGAGTAAACAAATTTTCCTAATCTTTCTGTTCAAGCGCCATCTAC | 1 RPM ratio (pull-down/input)
